The supplement of paper PMC12217912
The list shows a part of the results. Sequences were assembled here from the parent chain. Values near 0.05 are background.

B1: TEV protease; numbered along this chain (parent)
chain: MGESLFKGPRDYNPISSSICHLTNESDGHTTSLYGIGFGPFIITNKHLFRRNNGTLVVQSLHGVFKVKDTTTLQQHLVDGRDMIIIRMPKDFPPFPQKLKFREPQREERICLVTTNFQTKSMSSMVSDTSCTFPSGDGIFWKHWIQTKDGQCGSPLVSTRDGFIVGIHSASNFTNTNNYFTSVPKNFMELLTNQEAQQWVSGWRLNADSVLWGGHKVFMVKPEEPFQPVKEATQL

Variants of: B1
Test: raw area under fraction-flipped curve 0-4 h after induction (AUC4h, not background-subtracted), DNA-recorder readout of cleavage of the substrate (dimensionless); higher = more cleavage of the substrate by the protease variant
Details: temperature: 34 °C; time window: 0-4 h after rhamnose induction
Protocol: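 In vivo DNA recorder in E. coli TOP10(DE3) ΔrhaA at 34 °C. Each TEVp single-site mutant (parent TEVp 0) is paired with a single-site variant of the 7-mer TEVs (canonical ENLYFQ|S). The substrate sits between flexible linkers in a Bxb1-sfGFP-TEVs-SsrA fusion, so cleavage stabilises Bxb1 and speeds flipping of a recombination array, read by NGS. The value is the raw area under the fraction-flipped curve over 0-4 h after rhamnose induction (AUC4h), with ≥20 reads per time point. It is not background-subtracted; inactive controls average about 0.047.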
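Further: Bxb1 expression induced with 0.2% (w/v) L-rhamnose at OD600 near 0.5, cultures sampled hourly, flipped fraction per protease–substrate barcode pair counted by paired-end Illumina sequencing.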

| Variant | area with substrate ENLYFQC | area with substrate ENLYFQF | area with substrate ENLYFQH | area with substrate ENLYFQI | area with substrate ENLYFQK | area with substrate ENLYFQM | area with substrate ENLYFQS | area with substrate ENLYFQT | area with substrate ENLYFQW | area with substrate ENLYFQY | area with substrate ENLYFQL | area with substrate ENLYFQN | area with substrate ENLYFQR | area with substrate ENLYFQV | area with substrate ENLYFQQ | area with substrate ENLYFQG | area with substrate ENLYFQD | area with substrate ENLYFQE | area with substrate ENLYFQP |
| --- | --- | --- | --- | --- | --- | --- | --- | --- | --- | --- | --- | --- | --- | --- | --- | --- | --- | --- | --- |
| MGESLFKGPRDYNPISSSICHLTNESDGHTTSLYGIGFGPFIITNKHLFRRNNGTLVVQSLHGVFKVHDTTTLQQHLVDGRDMIIIRMPKDFPPFPQKLKFREPQREERICLVTTNFQTKSMSSMVSDTSCTFPSGDGIFWKHWIQTKDGQCGSPLVSTRDGFIVGIHSASNFTNTNNYFTSVPKNFMELLTNQEAQQWVSGWRLNADSVLWGGHKVFMVKPEEPFQPVKEATQL [K68H] | 0.119 | 0.0771 | 0.133 | 0.0394 | 0.0715 | 0.109 | 0.103 | 0.0681 | 0.0639 | 0.0782 |  |  |  |  |  |  |  |  |  |
| MGESLFKGPRDYNPISSSICHLTNESDGHTTSLYGIGFGPFIITNKHLFRRNNGTLVVQSLHGVFKVGDTTTLQQHLVDGRDMIIIRMPKDFPPFPQKLKFREPQREERICLVTTNFQTKSMSSMVSDTSCTFPSGDGIFWKHWIQTKDGQCGSPLVSTRDGFIVGIHSASNFTNTNNYFTSVPKNFMELLTNQEAQQWVSGWRLNADSVLWGGHKVFMVKPEEPFQPVKEATQL [K68G] | 0.0907 |  |  | 0.0651 | 0.0659 | 0.0818 | 0.0973 |  |  |  | 0.056 | 0.0741 | 0.0607 | 0.0602 |  |  |  |  |  |
| MGESLFKGPRDYNPISSSICHLTNESDGHTTSLYGIGFGPFIITNKHLFRRNNGTLVVQSLHGVFKVKDKTTLQQHLVDGRDMIIIRMPKDFPPFPQKLKFREPQREERICLVTTNFQTKSMSSMVSDTSCTFPSGDGIFWKHWIQTKDGQCGSPLVSTRDGFIVGIHSASNFTNTNNYFTSVPKNFMELLTNQEAQQWVSGWRLNADSVLWGGHKVFMVKPEEPFQPVKEATQL [T70K] | 0.0585 |  |  |  |  | 0.0385 | 0.0672 | 0.0615 | 0.0589 |  |  | 0.0677 |  | 0.0413 | 0.0283 |  |  |  |  |
| MGESLFKGPRDYNPISSSICHLTNESDGHTTSLYGIGFGPFIITNKHLFRRNNGTLVVQSLHGVFKVKDPTTLQQHLVDGRDMIIIRMPKDFPPFPQKLKFREPQREERICLVTTNFQTKSMSSMVSDTSCTFPSGDGIFWKHWIQTKDGQCGSPLVSTRDGFIVGIHSASNFTNTNNYFTSVPKNFMELLTNQEAQQWVSGWRLNADSVLWGGHKVFMVKPEEPFQPVKEATQL [T70P] | 0.0841 | 0.0708 |  |  | 0.0619 | 0.0755 | 0.0751 |  | 0.0738 | 0.0766 | 0.0683 | 0.0638 | 0.0617 |  |  |  |  |  |  |
| MGESLFKGPRDYNPISSSICHLTNESDGHTTSLYGIGFGPFIITNKHLFRRNNGTLVVQSLHGVFKKKDTTTLQQHLVDGRDMIIIRMPKDFPPFPQKLKFREPQREERICLVTTNFQTKSMSSMVSDTSCTFPSGDGIFWKHWIQTKDGQCGSPLVSTRDGFIVGIHSASNFTNTNNYFTSVPKNFMELLTNQEAQQWVSGWRLNADSVLWGGHKVFMVKPEEPFQPVKEATQL [V67K] | 0.0591 |  | 0.076 | 0.0585 | 0.0542 |  | 0.0671 |  | 0.039 |  |  |  | 0.059 | 0.07 |  | 0.0938 |  |  |  |
| MGESLFKGPRDYNPISSSICHLTNESDGHTTSLYGIGFGPFIITNKHLFRRNNGTLVVQSLHGVFKIKDTTTLQQHLVDGRDMIIIRMPKDFPPFPQKLKFREPQREERICLVTTNFQTKSMSSMVSDTSCTFPSGDGIFWKHWIQTKDGQCGSPLVSTRDGFIVGIHSASNFTNTNNYFTSVPKNFMELLTNQEAQQWVSGWRLNADSVLWGGHKVFMVKPEEPFQPVKEATQL [V67I] | 0.109 |  | 0.0863 |  | 0.0514 |  | 0.103 |  | 0.0601 |  |  | 0.0472 |  | 0.0584 |  | 0.0906 | 0.046 | 0.0509 |  |
| MGESLFKGPRDYNPISSSICHLTNESDGHTTSLYGIGFGPFIITNKHLFRRNNGTLVVQSLHGVFKVKDTQTLQQHLVDGRDMIIIRMPKDFPPFPQKLKFREPQREERICLVTTNFQTKSMSSMVSDTSCTFPSGDGIFWKHWIQTKDGQCGSPLVSTRDGFIVGIHSASNFTNTNNYFTSVPKNFMELLTNQEAQQWVSGWRLNADSVLWGGHKVFMVKPEEPFQPVKEATQL [T71Q] | 0.101 | 0.0824 |  |  |  | 0.107 | 0.101 | 0.0624 |  |  | 0.0631 | 0.0696 |  | 0.0665 | 0.0684 | 0.0833 | 0.0785 |  | 0.0555 |
| MGESLFKGPRDYNPISSSICHLTNESDGHTTSLYGIGFGPFIITNKHLFRRNNGTLVVQSLHGVFKVKDTRTLQQHLVDGRDMIIIRMPKDFPPFPQKLKFREPQREERICLVTTNFQTKSMSSMVSDTSCTFPSGDGIFWKHWIQTKDGQCGSPLVSTRDGFIVGIHSASNFTNTNNYFTSVPKNFMELLTNQEAQQWVSGWRLNADSVLWGGHKVFMVKPEEPFQPVKEATQL [T71R] | 0.158 |  | 0.092 | 0.0523 | 0.0534 | 0.132 | 0.0987 | 0.0678 | 0.0787 | 0.0713 | 0.0522 | 0.0754 | 0.0586 | 0.0381 |  | 0.0614 |  |  |  |
| MGESLFKGPRDYNPISSSICHLTNESDGHTTSLYGIGFGPFIITNKHLFRRNNGTLVVQSLHGVFKVKDTKTLQQHLVDGRDMIIIRMPKDFPPFPQKLKFREPQREERICLVTTNFQTKSMSSMVSDTSCTFPSGDGIFWKHWIQTKDGQCGSPLVSTRDGFIVGIHSASNFTNTNNYFTSVPKNFMELLTNQEAQQWVSGWRLNADSVLWGGHKVFMVKPEEPFQPVKEATQL [T71K] | 0.1 | 0.0791 | 0.0687 |  | 0.0663 | 0.0973 | 0.0964 | 0.0566 |  | 0.0914 | 0.0426 | 0.0886 | 0.0671 | 0.0744 |  | 0.0886 |  | 0.0679 |  |
| MGESLFKGPRDYNPISSSICHLTNESDGHTTSLYGIGFGPFIITNKHLFRRNNGTLVVQSLHGVFKVKDTNTLQQHLVDGRDMIIIRMPKDFPPFPQKLKFREPQREERICLVTTNFQTKSMSSMVSDTSCTFPSGDGIFWKHWIQTKDGQCGSPLVSTRDGFIVGIHSASNFTNTNNYFTSVPKNFMELLTNQEAQQWVSGWRLNADSVLWGGHKVFMVKPEEPFQPVKEATQL [T71N] | 0.132 | 0.0745 | 0.0635 |  |  | 0.0747 | 0.0897 | 0.0586 | 0.0405 | 0.0758 |  |  | 0.0539 | 0.0628 | 0.0711 | 0.103 |  |  | 0.0505 |
